The values below come from ChEMBL document CHEMBL4888484, “Replenishing the malaria drug discovery pipeline: Screening and hit evaluation of the MMV Hit Generation Library 1 (HGL1) against asexual blood stage Plasmodium falciparum ,using a nano luciferase reporter read-out” (2022).

Screen size: about 150,000 compounds; about 540 (0.36%) showed an effect of 50% or more. The list shows a part of the results.

The assay relates to Plasmodium falciparum. Nature of the assay: Primary screen in NF54 nanoGlo assay, in single point, at 2uM, 72h; a lower Z score goes with more inhibition. In kind it is functional, Erythrocyte. Conditions: timepoint 72 hour.
Turning to `CCc1ccc([C@@H]2CCCCN2C(=O)c2cnn(C)c2OC)o1`, the % Inhibition (usually the relative decrease from the control value, in per cent) is -10% and the Z score was determined as 1.58.

For the compound `CC(C)N1CCC[C@H](N2CCC(Cc3nccn3C)CC2)C1=O`, the “% Inhibition” value is -2% and the Z score is 0.33.

For `CC(CNC(=O)NC(C)c1nc(C2CCCC2)no1)c1nccs1` (centres undefined), the “% Inhibition” value was 4% and the Z score is reported as -0.37.

As to `CCNC(=NCc1cc(C)cc(OC)c1)NCC`, the “% Inhibition” value is -15% and the Z score worked out at 1.4.

As for `COc1ccc(-c2noc(-c3ccc(-c4ccc(O)cc4)nc3)n2)cc1`, the “% Inhibition” value was -7% and the Z score worked out at 1.29.

Consider `CCC[C@@]1(C)C(=O)NCCN1Cc1nnc(-c2ccc(Cl)cc2)n1C`, for which the “% Inhibition” value is 32% and the Z score is recorded as -4.29.

Take `CCN(CC)C(=O)c1c(Cl)c(OC)cc(OC)c1Cl`: the “% Inhibition” value was -10% and the Z score was 1.06.

As for `CC(C)c1nc(CC(=O)N(C)Cc2ccsc2)cs1`, the “% Inhibition” value is recorded as -6% and the Z score is recorded as 0.92.

With `Cc1cccc(NC(=O)NCCn2nnc3cc(S(=O)(=O)N(C)C)ccc32)c1C`, the “% Inhibition” value is recorded as 33% and the Z score is -3.74.

Regarding `CC(C)OCCS(=O)(=O)N[C@H](c1cccc(C(F)(F)F)c1)c1nnc[nH]1`, the “% Inhibition” value is given as -9% and the Z score is listed as 1.

For the compound `Cc1c(-c2nc([C@H]3CCOC3)no2)[nH]c2ccc(F)cc12`, the “% Inhibition” value is -3% and the Z score was 0.55.

`CN(C[C@H]1COCCO1)C(=O)c1cccc(-c2ccc(NC3CC3)nn2)c1`: the “% Inhibition” value is -1% and the Z score is 0.14.

On to `Cc1noc2ncnc(N3CC[C@@](O)(C4CCOCC4)[C@H](C)C3)c12`, for which the “% Inhibition” value is -3% and the Z score was found to be 0.47.

`O=S(=O)(CC1CCCC1)NCCOc1ccccc1F`: the “% Inhibition” value was -10% and the Z score amounted to 1.07.

For the compound `OCC1CCCN1C[C@H]1CCCO[C@@H]1c1ccc(C(F)(F)F)cc1` (some centres undefined), the “% Inhibition” value is -18% and the Z score is given as 2.43.

Consider `CC(C)n1cc([C@H]2OCC[C@@H]2NC(=O)Nc2ccc3ccc(=O)n(C)c3c2)cn1`, for which the “% Inhibition” value is -15% and the Z score is given as 2.24.

On to `O=C(O)c1cnc(C=Cc2csc(-c3ccco3)n2)s1`, for which the “% Inhibition” value was -8% and the Z score was found to be 1.25.

As for `Cc1ccc2[nH]c3c(=O)n(CC(=O)N4CCN(Cc5ccccc5)CC4)ncc3c2c1`, the “% Inhibition” value is -4% and the Z score is 0.64.

As to `CC(O)CN1CCN(C(C)C(=O)Nc2ccc(Cl)cn2)CC1C` (centres undefined), the “% Inhibition” value is 6% and the Z score is -0.83.

Regarding `O=C(CCC(=O)N1CC[C@@H]2OCc3cnnn3[C@@H]2C1)c1ccccc1`, the “% Inhibition” value is recorded as -11% and the Z score came out at 2.16.

Turning to `CNC(=O)c1cccc(NC(=O)N[C@H](c2ccccc2)C2CC2)n1`, the “% Inhibition” value worked out at 29% and the Z score was -3.23.

Turning to `O=C1CNC(=O)N1CCOc1ccc(F)c(F)c1`, the “% Inhibition” value is given as 8% and the Z score is reported as -1.4.

In the case of `CC(C)=CCN1C(=O)[C@@H]2CC[C@H]1CN(C(=O)c1ccc3c(c1)NC(=O)CN3)C2`, the “% Inhibition” value was 1% and the Z score is recorded as -0.1.

`CCCCn1c(C(=O)NCc2ccccc2)cc2cc(NC(=O)C3CCC3)ccc21`: the “% Inhibition” value worked out at 16% and the Z score was -2.06.

For the compound `CC1(C)CN(C[C@H]2C[C@@H]2C(=O)O)CC(COc2ccccc2)O1` (some centres undefined), the “% Inhibition” value was found to be 8% and the Z score was -1.28.

In the case of `CCCn1nccc1S(=O)(=O)NCCCc1csc(N)n1`, the “% Inhibition” value is recorded as -11% and the Z score turned out to be 1.66.

For `CCCn1nnnc1NCc1ccc2c(c1)OCCO2`, the “% Inhibition” value is recorded as -17% and the Z score came to 1.57.

As to `CC(C)NC(=O)N1CC(Oc2ccccc2-c2nc(C3CC3)no2)C1`, the “% Inhibition” value is -4% and the Z score turned out to be 0.49.

Take `Cn1c(-c2c(-c3ccccc3)ncn2CCF)nc2ccccc21`: the “% Inhibition” value is -10% and the Z score turned out to be 1.23.

Take `O=C(COc1ccc(F)cc1)N1CC[C@H](c2nc(CCOCC3CCCC3)no2)C1`: the “% Inhibition” value was -9% and the Z score is reported as 1.04.

Take `CCc1ccc(CCCC(=O)N2C[C@H]3COCC[C@@]3(O)[C@@H]3COCC[C@@H]32)cc1`: the “% Inhibition” value came out at 5% and the Z score is given as -0.53.

As to `O=C(CN1C[C@H]2C[C@H](C1)[C@H]1CCCC(=O)N1C2)NCc1ccccc1`, the “% Inhibition” value is recorded as -5% and the Z score is 0.97.

In the case of `CCOCC(=O)N1CCc2ncnc(N3CCC4(CCCC4)C3)c2CC1`, the “% Inhibition” value is listed as -15% and the Z score turned out to be 1.47.

Regarding `CCCC(CCC)NC(=O)c1cncn1-c1cccc(-c2cccc(Cl)c2)c1`, the “% Inhibition” value was determined as 9% and the Z score is reported as -1.14.

As to `O=C(NCc1cc[nH]n1)[C@@H]1COCC(=O)N1Cc1ccccc1`, the “% Inhibition” value was -3% and the Z score turned out to be 0.59.

Take `COc1cccc(C(=O)N(C(=O)c2cccc(OC)c2)c2ncccc2C)c1`: the “% Inhibition” value is given as -11% and the Z score is recorded as 1.4.

With `CCN(C)C(=O)Nc1nnc(C2CC2)s1`, the “% Inhibition” value was -8% and the Z score is given as 1.24.

Take `Cc1nc(C)n(-c2ccc(C(=O)N3CC4(CCC4)c4c(F)cccc43)cc2)n1`: the “% Inhibition” value is on record as -17% and the Z score came to 2.25.

Turning to `CN(CC(=O)N(C1CCCC1)[C@H]1CCS(=O)(=O)C1)Cc1nccn1C`, the “% Inhibition” value turned out to be 19% and the Z score was -2.22.

Consider `CCC(C(=O)O)N1CCCC(c2nc(C(F)(F)F)cs2)C1` (centres undefined), for which the “% Inhibition” value is -14% and the Z score worked out at 1.37.

Consider `Cc1nc(C(=O)NCCCOC(C)C)c(C)s1`, for which the “% Inhibition” value is reported as -13% and the Z score is recorded as 1.26.

Turning to `O=C(Nc1ccc2c(c1)C(=O)N(C[C@H]1CCCO1)C2=O)c1cccs1`, the “% Inhibition” value turned out to be 4% and the Z score is given as -0.47.
